Source: the supplement of paper PMC6206098
± gives the uncertainty stated by the source. The sequences are guide strands of siRNAs; only the seed at positions 2 to 7 varies.

Experiments:
[1] = test system: 3LL; assay: cell viability relative to siNT1 control; higher = less toxic; conditions: concentration: 10 nM; 96 h; Mus musculus;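 also: Luminescence-based viability of cells reverse transfected in 384-well plates with lipid-complexed siRNAs built on a non-toxic 19mer backbone whose passenger strand carries 2′-O-methyl groups at positions 1 and 2, triplicates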
[2] = test system: M565; assay: cell viability relative to lipid-only control; HeyA8 human ovarian and H460 human lung cancer; M565 mouse liver and 3LL mouse lung cancer; siNT1 is a non-toxic control siRNA; higher = less toxic; conditions: concentration: 10 nM; 96 h; Mus musculus
[3] = test system: HeyA8; assay: as above; conditions: concentration: 10 nM; 96 h; Homo sapiens
[4] = test system: H460; assay: as above; conditions: concentration: 10 nM; 96 h; Homo sapiens
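For cell viability relative to lipid-only control in this document: reverse lipid transfection in 384-well plates, in triplicate, of duplexes on a non-toxic 19mer backbone with passenger strand 2′-O-methylated at positions 1 and 2, luminescence viability read-out.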

Sequence | cell viability [1] [%] | cell viability [2] [%] | cell viability [3] [%] | cell viability [4] [%]
UGUUUACACAUGUAAACCAAA | 87.3 ± 7 | 71.5 ± 14 | 92.7 ± 9.9 | 66.9 ± 10
UGGUAUAACAUGUAAACCAAA | 91.2 ± 11 | 71.5 ± 6.9 | 69.1 ± 0.94 | 73 ± 5.3
UUGAAGAACAUGUAAACCAAA | 90.6 ± 5.5 | 67.3 ± 8 | 91.7 ± 7 | 116 ± 26
UCGAUGCACAUGUAAACCAAA | 60.1 ± 15 | 60.8 ± 6.2 | 25.8 ± 1.7 | 32.5 ± 5.1
UGACCGCACAUGUAAACCAAA | 30.4 ± 6.3 | 4.85 ± 1.2 | 44.6 ± 6.5 | 56.1 ± 12
UAAGUCAACAUGUAAACCAAA | 79.6 ± 6 | 62.59 ± 0.61 | 81.9 ± 16 | 91.9 ± 11
UCGUACCACAUGUAAACCAAA | 57.5 ± 6.3 | 30.5 ± 0.81 | 61.3 ± 1.8 | 22.9 ± 1.2
UAGCUCUACAUGUAAACCAAA | 34.7 ± 2.4 | 29.9 ± 2.4 | 53.2 ± 4.4 | 42.6 ± 0.9
UUAGAUUACAUGUAAACCAAA | 66.4 ± 12 | 73.5 ± 13 | 81.4 ± 2.9 | 92.9 ± 11
UUUCCUUACAUGUAAACCAAA | 67.4 ± 5 | 89.9 ± 9.5 | 66.2 ± 5.3 | 58.1 ± 11
UGGGUGCACAUGUAAACCAAA | 38.6 ± 7.4 | 15 ± 3 | 2.68 ± 0.41 | 7.78 ± 0.6
UUGCUCAACAUGUAAACCAAA | 86.4 ± 1 | 73.9 ± 13 | 74.6 ± 4.1 | 56.8 ± 5.3
UCUUACUACAUGUAAACCAAA | 97.6 ± 15 | 74.3 ± 14 | 86.2 ± 9.9 | 60.8 ± 4.3
UGGACCCACAUGUAAACCAAA | 13.4 ± 2.6 | 10.6 ± 3.9 | 42 ± 1.8 | 58.5 ± 5.1
UUGGAUGACAUGUAAACCAAA | 81.9 ± 10 | 54.4 ± 5.8 | 61.9 ± 3.4 | 53.6 ± 8
